In publication PMC7819943, “Rice protein-binding microarrays: a tool to detect cis-acting elements near promoter regions in rice”:
Some of the results follow.

What follows are sequences tested against T1, OsWOX13 (Oryza sativa, UniProt Q5QMM3 1-267) (assay: protein-binding microarray (RPBM); PBS, 2% BSA, 51.3 ng/ul salmon testes DNA, 50 uM zinc acetate, 200 nM TF, 25 C, 1 h; high values mean tight binding). Conditions: protein: recombinant; tags: N-terminal polyhistidine and DsRed monomer fusion (pET32a); label: CyDye5-dUTP incorporated in the synthesized complementary strand; 3' TTTTT single-stranded linker to array surface; dsDNA, one strand shown.
T1 sequence: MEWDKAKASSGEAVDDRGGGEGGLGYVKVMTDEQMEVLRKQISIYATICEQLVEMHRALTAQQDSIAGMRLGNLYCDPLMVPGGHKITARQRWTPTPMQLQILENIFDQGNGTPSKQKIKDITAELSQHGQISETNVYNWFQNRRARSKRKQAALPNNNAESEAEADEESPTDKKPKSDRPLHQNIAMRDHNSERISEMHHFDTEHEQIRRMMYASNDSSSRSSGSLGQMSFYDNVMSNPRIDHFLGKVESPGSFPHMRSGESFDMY
Procedure, shortened: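 Using Ni–NTA, transcription factors fused N-terminally to polyhistidine and DsRed were purified after expression in E. coli BL21-CodonPlus. These were incubated at 200 nM with a blocked, double-stranded custom Agilent array for 1 h at 25 °C in a buffer containing 50 µM zinc acetate, and the array was washed. The binding signal is per-feature fluorescence intensity (arbitrary units) on an Axon 4000B scanner.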

Sequence | binding signal
GACACAAACTGACTGGATTATGATGGGAGCAATCAATGATCGGAGTCACCTAGTGCAG | 17600 fluorescence intensity (a.u.)
CAATCCCAATCCCAATCAATCCCTCTCTCCATCTGGTGCTCGGAGTCACCTAGTGCAG | 14500 fluorescence intensity (a.u.)
ATCTTGCTGATTTTGTTGTTGATTTGAATGCTATGTAAACCGGAGTCACCTAGTGCAG | 11600 fluorescence intensity (a.u.)
GTTTAATCTGTCACTGTCAGTCTGACACCCAAATTACTATCGGAGTCACCTAGTGCAG | 11400 fluorescence intensity (a.u.)
TGCTTATCTGATTAAAATTTGATTGTACCATTGAATTAGTCGGAGTCACCTAGTGCAG | 26800 fluorescence intensity (a.u.)
CCGGATGACATGATGACACCGCTACCCATTAAGTTTCGTCCGGAGTCACCTAGTGCAG | 6720 fluorescence intensity (a.u.)
GAGATTGACGAAGTCACCATAGACATCTTGCTATCGACGGCGGAGTCACCTAGTGCAG | 37300 fluorescence intensity (a.u.)
AACCTGTCACTTTCACCTATTATTATTACTGGATTATTACCGGAGTCACCTAGTGCAG | 3550 fluorescence intensity (a.u.)
ATCCTAATTAATAGATACAATTGCCTCCTCAGGACTTTATCGGAGTCACCTAGTGCAG | 18100 fluorescence intensity (a.u.)
TACTAACTCCAAATCATCAATAGTCAATTTAATAGCCAACCGGAGTCACCTAGTGCAG | 6420 fluorescence intensity (a.u.)
TGATAAATTAATTCGAACAGATACGATGTTTATGGTAGCGCGGAGTCACCTAGTGCAG | 24700 fluorescence intensity (a.u.)
TCAAGAATTATAGTTGATTTTATATTGGAGATTTGTTAACCGGAGTCACCTAGTGCAG | 4000 fluorescence intensity (a.u.)
CTGAAAGGCAATTAAGACACAACCCTCAGAAGTACTTACCCGGAGTCACCTAGTGCAG | 10100 fluorescence intensity (a.u.)
TTGATATATTTACATTGTAATTTTCAAATCTTACATGTAACGGAGTCACCTAGTGCAG | 5100 fluorescence intensity (a.u.)
GATCCAAATTGATGAAGTTTACAGCAGCAGCAGTAACAGTCGGAGTCACCTAGTGCAG | 28900 fluorescence intensity (a.u.)
TCTCCAGATTGGTGGCAATCCCTTGCCGCGTGTCCACCTGCGGAGTCACCTAGTGCAG | 5490 fluorescence intensity (a.u.)
GGGTTAATTAATACTCCCTTCGTTTGTTTCATATTATAAGCGGAGTCACCTAGTGCAG | 26400 fluorescence intensity (a.u.)
ACCTTTTCCGCGTGTTGTGTCTGTTTGTTGAAGATGAATTCGGAGTCACCTAGTGCAG | 3280 fluorescence intensity (a.u.)
CGACAAATTATTTGAAACAAGCAGGAGATTGAACTGCTACCGGAGTCACCTAGTGCAG | 15100 fluorescence intensity (a.u.)
GTAGTTAACCATTTAACCTGATGATGTGAGGACGAAAGAACGGAGTCACCTAGTGCAG | 4950 fluorescence intensity (a.u.)
GTGATTTTATTAAATCTCGAGATATATCGTTTCAAGGTTGCGGAGTCACCTAGTGCAG | 3750 fluorescence intensity (a.u.)

Sequence | binding signal
TGAAATTTTAAAATTTTAATTGTACACATTCTATAATGCACGGAGTCACCTAGTGCAG | 26400 fluorescence intensity (a.u.)
ATTAATTACACAATCGTGCGGTCGGTACAGGCCTCACAAGCGGAGTCACCTAGTGCAG | 13300 fluorescence intensity (a.u.)
AATCATTTTCCATCACATCAACCTGTCATACACACATAACCGGAGTCACCTAGTGCAG | 5620 fluorescence intensity (a.u.)
AAGCGAGCAGCTCTGATTGTTTACACATTACGACAACACTCGGAGTCACCTAGTGCAG | 3520 fluorescence intensity (a.u.)
ACAAATTACCTAGAGTATATCAAGAGAGAGAAGAATGGAGCGGAGTCACCTAGTGCAG | 3250 fluorescence intensity (a.u.)
GACAGGATTATCACCTATTTGTCAACAGTTCACCAGGAGCCGGAGTCACCTAGTGCAG | 3360 fluorescence intensity (a.u.)
GTAATTAGATAATCGATTAGCAGATGCTAAGCAAGAATGCCGGAGTCACCTAGTGCAG | 22600 fluorescence intensity (a.u.)
TCAGACGAGACTGGTGGTGGGGTCAGGTGGGTTACTCGTCCGGAGTCACCTAGTGCAG | 3810 fluorescence intensity (a.u.)
GTGAGAATGGATTTAAATTGAAGGTAAATGTATGGTTTTCCGGAGTCACCTAGTGCAG | 19600 fluorescence intensity (a.u.)
CAAACAATTGAGGCCCGCTTAATTTACATTATTAAGTGAACGGAGTCACCTAGTGCAG | 3850 fluorescence intensity (a.u.)
AAAATTTAACAGAACTAATTTAATATTTTAGAAGTTGCTACGGAGTCACCTAGTGCAG | 34900 fluorescence intensity (a.u.)
TTCCAATTAGGTCGTCACATATATTTTCACCGTAGAAGTTCGGAGTCACCTAGTGCAG | 9200 fluorescence intensity (a.u.)
AATTAATTACTAGTCAAAATTTGGTCATCGGCCTGATTATCGGAGTCACCTAGTGCAG | 37500 fluorescence intensity (a.u.)
CTGTAATTGAGTAATATTACTGTTGGTTGGCTGTTAATAGCGGAGTCACCTAGTGCAG | 42600 fluorescence intensity (a.u.)
ACCTAGCTAACTGACTGAGATGTGACATGCTACTAGGAGTCGGAGTCACCTAGTGCAG | 8880 fluorescence intensity (a.u.)
ACCCTAATAAGGCGTAATTTTATTTTACGTAAACGAGTTTCGGAGTCACCTAGTGCAG | 5660 fluorescence intensity (a.u.)
AGTCAATTAATCATATGCTAATGACTCACCTCGTTTTGTGCGGAGTCACCTAGTGCAG | 50100 fluorescence intensity (a.u.)
AGTTGACATATTCTCATACTGATATCATGATGTTTACATTCGGAGTCACCTAGTGCAG | 4880 fluorescence intensity (a.u.)
ATATTAGATTGGTTACGGATAAATTAGAGCTAGTAGTTGGCGGAGTCACCTAGTGCAG | 52200 fluorescence intensity (a.u.)
ATTGATTGCTCTTCGTCTCCCCTGGCTATAAAACGAGCGGCGGAGTCACCTAGTGCAG | 47700 fluorescence intensity (a.u.)
TATGATAGACCAAAAGACAAACCGGAATGTCTGCTGCTAGCGGAGTCACCTAGTGCAG | 10700 fluorescence intensity (a.u.)
